The text below walks through data of paper PMC12820563, “FoxP3 forms a head-to-head dimer in vivo and stabilizes its multimerization on adjacent microsatellites”.

Some of the results follow.

The assay deals with T1, MBP-FoxP1dN (Mus musculus, UniProt P58462 326-579).
T1 sequence: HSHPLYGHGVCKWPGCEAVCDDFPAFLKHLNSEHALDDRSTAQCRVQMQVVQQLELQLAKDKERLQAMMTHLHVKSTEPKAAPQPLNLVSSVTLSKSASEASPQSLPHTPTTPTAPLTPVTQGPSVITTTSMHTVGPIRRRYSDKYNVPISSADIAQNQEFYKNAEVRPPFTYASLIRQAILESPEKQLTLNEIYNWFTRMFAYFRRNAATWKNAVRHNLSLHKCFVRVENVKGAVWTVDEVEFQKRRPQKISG
Kind of assay: PD-seq (MBP pull-down with sequencing); 20 mM Tris-HCl pH 7.5, 100 mM NaCl, 1.5 mM MgCl2, 0.4 uM protein, 0.1 uM dsDNA library, 30 min, room temperature, amylose pull-down; high values mean tight binding. Conditions: protein: recombinant; tags: His6-MBP; chain copies: 2; dsDNA, one strand shown. In short, it runs like this:
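Protein and DNA were mixed at 0.4 µM and 0.1 µM and held for 30 min at room temperature in Tris pH 7.5 buffer with NaCl and MgCl2; the protein was a His6-MBP-tagged, N-terminally truncated mouse FoxP3 or FoxP1 fragment from E. coli, and the DNA a Klenow-filled double-stranded degenerate library. Amylose resin captured the complexes, which were washed three times. Binding is read as reads-per-million enrichment of pull-down versus input after Illumina sequencing, with replicates pooled.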
Regarding “GATGATTGTTCTCCCAGCTGATGAATTTATGCACTCGAGTAAACAAATTTTCCTAATCTTTCTGTTCAAGCGCCATCTAC”, the binding signal was 1.19 RPM ratio (pull-down/input).
The result for “GATGATTGTTCTCCCAGCTGATGAATTATCCCTATCGAGTAAACAAATTTTCCTAATCTTTCTGTTCAAGCGCCATCTAC” reads 1.05 RPM ratio (pull-down/input); that for “GATGATTGTTCTCCCAGCTGATGAATTGACGTTTTCGAGTAAACAAATTTTCCTAATCTTTCTGTTCAAGCGCCATCTAC”, 1.24 RPM ratio (pull-down/input).
“GATGATTGTTCTCCCAGCTGATGAATTTCAACTATCGAGTAAACAAATTTTCCTAATCTTTCTGTTCAAGCGCCATCTAC”: the binding signal is 0.987 RPM ratio (pull-down/input).
The result for “GATGATTGTTCTCCCAGCTGATGAATTCCTTTCCTCGAGTAAACAAATTTTCCTAATCTTTCTGTTCAAGCGCCATCTAC” reads 0.761 RPM ratio (pull-down/input); that for “GATGATTGTTCTCCCAGCTGATGAATTGATCGTTTCGAGTAAACAAATTTTCCTAATCTTTCTGTTCAAGCGCCATCTAC”, 1.02 RPM ratio (pull-down/input); that for “GATGATTGTTCTCCCAGCTGATGAATTTGTTTGGTCGAGTAAACAAATTTTCCTAATCTTTCTGTTCAAGCGCCATCTAC”, 2.1 RPM ratio (pull-down/input).
To “GATGATTGTTCTCCCAGCTGATGAATTTCTCCTATCGAGTAAACAAATTTTCCTAATCTTTCTGTTCAAGCGCCATCTAC” belongs 0.938 RPM ratio (pull-down/input); to “GATGATTGTTCTCCCAGCTGATGAATTCACCCGATCGAGTAAACAAATTTTCCTAATCTTTCTGTTCAAGCGCCATCTAC”, 0.813 RPM ratio (pull-down/input); to “GATGATTGTTCTCCCAGCTGATGAATTATCACCCTCGAGTAAACAAATTTTCCTAATCTTTCTGTTCAAGCGCCATCTAC”, 0.93 RPM ratio (pull-down/input).
On to “GATGATTGTTCTCCCAGCTGATGAATTCGTCATATCGAGTAAACAAATTTTCCTAATCTTTCTGTTCAAGCGCCATCTAC”, for which the binding signal was 0.964 RPM ratio (pull-down/input).
The result for “GATGATTGTTCTCCCAGCTGATGAATTGCGATTGTCGAGTAAACAAATTTTCCTAATCTTTCTGTTCAAGCGCCATCTAC” reads 1.34 RPM ratio (pull-down/input).
To “GATGATTGTTCTCCCAGCTGATGAATTCCTTCTGTCGAGTAAACAAATTTTCCTAATCTTTCTGTTCAAGCGCCATCTAC” belongs 0.786 RPM ratio (pull-down/input).
To “GATGATTGTTCTCCCAGCTGATGAATTCCGATGGTCGAGTAAACAAATTTTCCTAATCTTTCTGTTCAAGCGCCATCTAC” belongs 0.796 RPM ratio (pull-down/input).
On to “GATGATTGTTCTCCCAGCTGATGAATTGATTATGTCGAGTAAACAAATTTTCCTAATCTTTCTGTTCAAGCGCCATCTAC”, for which the binding signal is 1.31 RPM ratio (pull-down/input).
In the case of “GATGATTGTTCTCCCAGCTGATGAATTTGGTATGTCGAGTAAACAAATTTTCCTAATCTTTCTGTTCAAGCGCCATCTAC”, the binding signal is 0.971 RPM ratio (pull-down/input).
Consider “GATGATTGTTCTCCCAGCTGATGAATTAGTCTGGTCGAGTAAACAAATTTTCCTAATCTTTCTGTTCAAGCGCCATCTAC”, for which the binding signal was 0.822 RPM ratio (pull-down/input).
The result for “GATGATTGTTCTCCCAGCTGATGAATTTACGTCTTCGAGTAAACAAATTTTCCTAATCTTTCTGTTCAAGCGCCATCTAC” reads 1.3 RPM ratio (pull-down/input); that for “GATGATTGTTCTCCCAGCTGATGAATTCAAACAGTCGAGTAAACAAATTTTCCTAATCTTTCTGTTCAAGCGCCATCTAC”, 1.08 RPM ratio (pull-down/input); that for “GATGATTGTTCTCCCAGCTGATGAATTATAATTTTCGAGTAAACAAATTTTCCTAATCTTTCTGTTCAAGCGCCATCTAC”, 1.1 RPM ratio (pull-down/input).
On to “GATGATTGTTCTCCCAGCTGATGAATTTACCCACTCGAGTAAACAAATTTTCCTAATCTTTCTGTTCAAGCGCCATCTAC”, for which the binding signal was 1.07 RPM ratio (pull-down/input).
To “GATGATTGTTCTCCCAGCTGATGAATTATTTACGTCGAGTAAACAAATTTTCCTAATCTTTCTGTTCAAGCGCCATCTAC” belongs 2.19 RPM ratio (pull-down/input); to “GATGATTGTTCTCCCAGCTGATGAATTTTCCCAATCGAGTAAACAAATTTTCCTAATCTTTCTGTTCAAGCGCCATCTAC”, 1.03 RPM ratio (pull-down/input); to “GATGATTGTTCTCCCAGCTGATGAATTAGATCGCTCGAGTAAACAAATTTTCCTAATCTTTCTGTTCAAGCGCCATCTAC”, 0.887 RPM ratio (pull-down/input).
To “GATGATTGTTCTCCCAGCTGATGAATTGAAGTTCTCGAGTAAACAAATTTTCCTAATCTTTCTGTTCAAGCGCCATCTAC” belongs 0.778 RPM ratio (pull-down/input).
The result for “GATGATTGTTCTCCCAGCTGATGAATTAGCTCGGTCGAGTAAACAAATTTTCCTAATCTTTCTGTTCAAGCGCCATCTAC” reads 0.829 RPM ratio (pull-down/input); that for “GATGATTGTTCTCCCAGCTGATGAATTACGCTGCTCGAGTAAACAAATTTTCCTAATCTTTCTGTTCAAGCGCCATCTAC”, 0.954 RPM ratio (pull-down/input); that for “GATGATTGTTCTCCCAGCTGATGAATTCAACCGTTCGAGTAAACAAATTTTCCTAATCTTTCTGTTCAAGCGCCATCTAC”, 0.947 RPM ratio (pull-down/input).
With “GATGATTGTTCTCCCAGCTGATGAATTCGTAATTTCGAGTAAACAAATTTTCCTAATCTTTCTGTTCAAGCGCCATCTAC”, the binding signal is 1.06 RPM ratio (pull-down/input).
As for “GATGATTGTTCTCCCAGCTGATGAATTCTACTCCTCGAGTAAACAAATTTTCCTAATCTTTCTGTTCAAGCGCCATCTAC”, the binding signal was 0.835 RPM ratio (pull-down/input).
The result for “GATGATTGTTCTCCCAGCTGATGAATTATCACTATCGAGTAAACAAATTTTCCTAATCTTTCTGTTCAAGCGCCATCTAC” reads 1.11 RPM ratio (pull-down/input); that for “GATGATTGTTCTCCCAGCTGATGAATTTTTGCTCTCGAGTAAACAAATTTTCCTAATCTTTCTGTTCAAGCGCCATCTAC”, 0.935 RPM ratio (pull-down/input).
“GATGATTGTTCTCCCAGCTGATGAATTCCACGAGTCGAGTAAACAAATTTTCCTAATCTTTCTGTTCAAGCGCCATCTAC”: the binding signal was 0.795 RPM ratio (pull-down/input).
Take “GATGATTGTTCTCCCAGCTGATGAATTCCTGTACTCGAGTAAACAAATTTTCCTAATCTTTCTGTTCAAGCGCCATCTAC”: the binding signal was 0.913 RPM ratio (pull-down/input).
To “GATGATTGTTCTCCCAGCTGATGAATTCAGAAGCTCGAGTAAACAAATTTTCCTAATCTTTCTGTTCAAGCGCCATCTAC” belongs 0.766 RPM ratio (pull-down/input); to “GATGATTGTTCTCCCAGCTGATGAATTGGGTTGCTCGAGTAAACAAATTTTCCTAATCTTTCTGTTCAAGCGCCATCTAC”, 0.894 RPM ratio (pull-down/input).
As to “GATGATTGTTCTCCCAGCTGATGAATTACTTCGATCGAGTAAACAAATTTTCCTAATCTTTCTGTTCAAGCGCCATCTAC”, the binding signal is 1.01 RPM ratio (pull-down/input).
To “GATGATTGTTCTCCCAGCTGATGAATTTACTTCGTCGAGTAAACAAATTTTCCTAATCTTTCTGTTCAAGCGCCATCTAC” belongs 1.18 RPM ratio (pull-down/input).
To “GATGATTGTTCTCCCAGCTGATGAATTTACATGGTCGAGTAAACAAATTTTCCTAATCTTTCTGTTCAAGCGCCATCTAC” belongs 1.15 RPM ratio (pull-down/input); to “GATGATTGTTCTCCCAGCTGATGAATTGTCTCAGTCGAGTAAACAAATTTTCCTAATCTTTCTGTTCAAGCGCCATCTAC”, 1.02 RPM ratio (pull-down/input).
